# Laboratory results: PubChem BioAssay AID1476 (National Center for Advancing Translational Sciences (NCATS), 2009)
# Where “and” joins values, the source holds several entries; their conditions need not be identical. Equal entries are not always repeated. Hit rate of the full screen: of about 200,000 compounds, about 4,500 (2.2%) were called active. This list was built around the results that the source calls inconclusive (neither active nor inactive); the mix of calls is not that of the screen. Calls follow the shape of the dose curve; as a rule, active = well fitted inhibition curve with a large enough effect; inconclusive = small, poorly fitted or top-dose-only effect, or effect the other way; inactive = flat fitted curve, though single readings scatter. Potencies beside an inconclusive call are fits to weak or partial responses and may not hold up.
# Biological target: Cruzipain (Trypanosoma cruzi) (UniProt P25779)
# Assay: qHTS Assay for Promiscuous and Specific Inhibitors of Cruzain (without detergent); also: nearly all actives have a fitted effect of over 40% in size;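 as to max response, negative = inhibition: plate controls were enzyme without inhibitor for no effect and buffer without enzyme for full effect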
# Details: purified cruzain, Z-FR-AMC fluorescence, no detergent
# How it was run: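 Detergent-free condition (0.00005% Triton X-100) in acetate buffer pH 5.5 with DTT. 1.5 nM enzyme and compound were pre-mixed 15 min, then 2 uM Z-FR-AMC substrate added; reaction progress from fluorescence change between first and third reads (60 s).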
# Potency is read from the fitted curve at half-maximal effect; tags tell the direction and shape of the fitted curve.
# Sequence of UniProt P25779 (P25779 whole entry, looked up): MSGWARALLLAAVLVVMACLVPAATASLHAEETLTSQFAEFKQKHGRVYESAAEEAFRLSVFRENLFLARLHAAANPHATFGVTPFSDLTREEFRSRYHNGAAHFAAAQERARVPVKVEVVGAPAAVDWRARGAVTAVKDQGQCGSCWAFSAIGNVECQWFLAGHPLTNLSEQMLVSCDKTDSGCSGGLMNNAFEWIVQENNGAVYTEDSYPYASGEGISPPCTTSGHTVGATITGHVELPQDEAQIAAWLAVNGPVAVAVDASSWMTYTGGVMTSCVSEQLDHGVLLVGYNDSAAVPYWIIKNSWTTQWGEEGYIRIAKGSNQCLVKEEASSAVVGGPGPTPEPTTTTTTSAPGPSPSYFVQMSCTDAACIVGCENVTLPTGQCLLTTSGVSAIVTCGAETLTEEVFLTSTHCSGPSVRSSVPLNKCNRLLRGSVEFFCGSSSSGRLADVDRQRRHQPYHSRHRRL
SMILES,Potency,"max response, negative = inhibition"
O=C(COc1ccc(Br)cc1Br)NC(=S)Nc1cccc(CO)c1,"inconclusive: 39.8 µM [inhibitor, single point]",
CCOc1ccc(CN2C(=O)c3ccccc3Sc3ccc(C(=O)NCc4ccco4)cc32)cc1,active: 31.6 µM,
COc1ccc(Cl)cc1NC(=O)CSc1cn(CC(=O)N2CCCCC2)c2ccccc12,,inactive: -9.94%
Cc1cc(C=O)c2c(c1)C=CC1(Oc3ccccc3C(=O)N1C)O2 (stereo unspecified),"inconclusive: 39.8 µM [activator, single point]",
Cc1cc2cc(CNC(=O)c3ccc(S(=O)(=O)N4CCCCC4)cc3)ccc2[nH]1,"inconclusive: 31.6 µM [inhibitor, single point]",
COc1ccc(CNC(=O)c2cc(Nc3ccccc3C)nc3ccccc23)cc1,active: 25.1 µM,
COc1ccc(-c2csc(/C=C/c3ccc4c(c3)OCO4)n2)cc1OC,"inconclusive: 31.6 µM [inhibitor, single point]",
COc1ccc(-c2cc(C(F)(F)F)nc(SCCC(=O)Nc3ccc(NC(C)=O)cc3)n2)cc1,,inactive: 1.45%
O=S(=O)(NCC(O)COCc1ccco1)c1cccs1 (stereo unspecified),"inconclusive: 39.8 µM [activator, single point]",
CCCCN(C)CCCNC(=O)C1CCN(S(=O)(=O)CCC)CC1,"inconclusive: 0.0794 µM [activator, partial curve, poor fit]",
O=C(Cc1ccc([N+](=O)[O-])cc1)Nc1nnc(C2CC2)s1,"inconclusive: 39.8 µM [inhibitor, single point]",
CC1=C(C(=O)Nc2ccccc2Cl)C(c2cccc(O)c2)n2ncnc2N1 (stereo unspecified),,inactive: 7.5%
Cc1ccc(Cl)cc1N1CCN(Cc2nc3c(c(=O)[nH]c(=O)n3C)n2CCc2ccccc2)CC1,"inconclusive: 10 µM [activator, partial curve]",
COc1cc(NC(=O)c2cc3nc(C4CC4)cc(C(F)(F)F)n3n2)c(OC)cc1Cl,"inconclusive: 10 µM [activator, partial curve]",
O=C1CC(c2c(Cl)cccc2Cl)c2c(ccc3ccccc23)N1 (stereo unspecified),,inactive: 4.77%
O=C(Nc1nc(-c2cccs2)c(-c2cccs2)s1)C1CCCC1,"inconclusive: 6.31 µM [inhibitor, partial curve, poor fit]",
CS(=O)(=O)Nc1cccc(-c2ccc3ncnc(N4CCNCC4)c3c2)c1,,inactive: 1.02%
COc1ccccc1CNc1nc2ccc(C)cc2n2nnnc12,,inactive: -0.946%
Cc1cc(NC(=O)c2ccc3c(c2)N(Cc2cccc(Cl)c2)C(=O)c2ccccc2S3(=O)=O)ccc1Br,active: 3.16 µM,
O=C(Nc1ccc(Cl)cc1)C1CCC(CNS(=O)(=O)c2ccc(Br)s2)CC1 (stereo unspecified),active: 25.1 µM,
Cc1ccc(OCc2nnc(NC(=O)OCC(C)C)s2)c(C)c1,"inconclusive: 3.98 µM [inhibitor, single point]",
O=C(Nc1ccc(O)c(-c2nc3ccccc3o2)c1)C1(c2ccc(Cl)cc2)CCCC1,active: 5.01 µM,

SMILES,Potency,"max response, negative = inhibition"
CCCN(C(=O)c1cn(C)c(=O)c2cc(OC)c(OC)cc12)c1ccc(CC)cc1,"inconclusive: 39.8 µM [activator, single point]",
COc1ccc2c(c1)c(=O)oc1cc3occ(C(C)(C)C)c3cc12,"inconclusive: 12.6 µM [inhibitor, partial curve]",
O=C(N/N=C/c1c[nH]c2ccccc12)c1sc2ccccc2c1Cl,,inactive: -2.52%
COc1ccc(S(=O)(=O)c2c(Nc3cccc(C)c3C)sc(C(=O)c3ccccc3)c2N)cc1,active: 6.31 µM,
Cc1nc(N=Nc2cc(S(=O)(=O)O)c3cc([N+](=O)[O-])cc(S(=O)(=O)O)c3c2)c(COP(=O)(O)O)c(C=O)c1O,,inactive: 2.35% and inactive: -8.3%
COc1ccc(-c2nc(SCC(=O)NC(C)CCc3ccccc3)n[nH]2)cc1 (stereo unspecified),,inactive: -7.59%
NC(=S)N/N=C/c1coc2c(ccc3ccccc32)c1=O,active: 0.631 µM,
Nc1nnc(SCC(=O)NCCOc2ccccc2)s1,"inconclusive: 20 µM [inhibitor, single point]",
O=C1c2ccccc2-c2onc3c(Oc4ccccc4)cc(O)c1c23,active: 20 µM,
COc1ccc(S(=O)(=O)N=C2C=C(C)C(=O)C(C)=C2)cc1,active: 12.6 µM,
Cn1c(N)c(C(=O)COC(=O)c2cc(-c3ccccc3)nc3ccccc23)c(=O)n(Cc2ccccc2)c1=O,active: 12.6 µM,
Cc1ncn(-c2ccccc2O)c1C,,inactive: 0.588%
CCOc1ccccc1NC(=O)C1CCN(S(=O)(=O)c2ccc(OC)c(OC)c2)CC1,"inconclusive: 31.6 µM [activator, single point]",
Cc1ccc(C(=O)N/C(=C/c2ccc(-c3cccc([N+](=O)[O-])c3)o2)C(=O)NC(C)C)cc1,"inconclusive: 39.8 µM [activator, single point]",
Cc1nc2ccc(S(=O)(=O)N(C)CC(=O)Nc3ccc(C(C)C)cc3)cc2s1,"inconclusive: 12.6 µM [activator, partial curve]",
CN(C)c1ccc(/C=N/N(Cc2ccccc2)c2ccccc2)cc1,"inconclusive: 39.8 µM [inhibitor, single point]",
CCCCC(=O)Nc1c(C(=O)N2CCN(c3ccccc3F)CC2)oc2ccccc12,"inconclusive: 20 µM [activator, partial curve]",
O=C(Cn1nc(-c2ccc(Cl)cc2)c2ccccc2c1=O)Nc1cccc(Br)c1,,inactive: -7.96%
COc1ccc(NC(=O)CSc2nc(-c3cc(OC)c(OC)c(OC)c3)[nH]c2-c2ccc(F)cc2)cc1,"inconclusive: 39.8 µM [activator, single point]",
Cn1c(=O)cc(SCC(=O)N2CCC3(CC2)OCCO3)c2ccc(Cl)cc21,"inconclusive: 39.8 µM [activator, single point]",
COc1ccc(CNS(=O)(=O)c2cc3c(cc2Cl)N(C(C)=O)CCO3)cc1,,inactive: 2.04%
CCOC(=O)CSc1nnc(NC(=O)c2cc([N+](=O)[O-])cc([N+](=O)[O-])c2)s1,"inconclusive: 25.1 µM [inhibitor, single point]",

SMILES,Potency,"max response, negative = inhibition"
COc1cccc(Nc2ncc3nc(C)c(=O)n(CCC#N)c3n2)c1,,inactive: -7.17%
COc1ccc(N2CCN(C(=O)CN(CCc3ccccc3)S(C)(=O)=O)CC2)cc1,"inconclusive: 39.8 µM [activator, single point]",
COc1cc2cc(c1Cl)N(C)C(=O)C[C@H](OC(=O)C(C)C)[C@]1(C)O[C@@H]1[C@@H](C)[C@H]1C[C@](O)(NC(=O)O1)[C@@H](OC)/C=C\C=C(\C)C2,"inconclusive: 6.31 µM [activator, single point]",
COc1cc(C(CC(=O)NCc2ccccc2Cl)N2Cc3ccccc3C2=O)cc(OC)c1OC (stereo unspecified),active: 15.8 µM,
Cc1cc(C)c2c(c1)/C(=N/NC(=S)Nc1ccc(F)cc1)CCC2,active: 15.8 µM,
COc1cc(OC)c(NC(=O)Nc2ccc3c(c2)N(C)C(=O)c2ccccc2S3)cc1Cl,"inconclusive: 39.8 µM [activator, single point]",
COc1cccc(Nc2nc(-c3sc(NC(=O)c4ccccc4)nc3C)cs2)c1,"inconclusive: 39.8 µM [inhibitor, single point]",
CCCOC(=O)c1c(NC(=O)CCCn2nc([N+](=O)[O-])cc2C)sc(C(=O)OC)c1C,"inconclusive: 39.8 µM [activator, single point]",
Cc1ccc(NCc2nnc(SCC(=O)Nc3ccccc3)n2CC2CCCO2)c(C)c1 (stereo unspecified),"inconclusive: 31.6 µM [activator, single point]",
O=C(CC(Nc1ccccc1Cl)C(=O)OCC(=O)c1cccs1)c1ccccc1 (stereo unspecified),"inconclusive: 31.6 µM [inhibitor, single point]",
COC(=O)c1cnc(N2CCN(c3ccc(OC)cc3)CC2)c2ccccc12,,inactive: -9.32%
Cc1ccccc1NS(=O)(=O)c1ccc2[nH]cc(C(=O)NCCc3ccccc3)c(=O)c2c1,,inactive: -11.3%
CCn1nc(C(=O)Nc2ccc3nc(C)sc3c2)c2ccccc2c1=O,"inconclusive: 12.6 µM [activator, partial curve]",
CC(C)NC(=O)N1CC[C@@]2(CCCN(C(=O)c3cc(C(F)(F)F)cc(C(F)(F)F)c3)C2)C1,"inconclusive: 20 µM [activator, partial curve]",
CCOC(=O)c1ccc(NS(=O)(=O)c2cc(-c3nnnn3C(C)C)ccc2OC)cc1,"inconclusive: 31.6 µM [activator, single point]",
CCCCS/C(N)=N/N=C/c1cc(C)ccc1O,"inconclusive: 31.6 µM [inhibitor, single point]",
O=C(Cc1cccs1)Nc1nnc(SCC(=O)NC2CCCCC2)s1,"inconclusive: 39.8 µM [inhibitor, single point]",
CNC(=O)[C@H]1O[C@@H](n2cnc3c(NCc4cccc(I)c4)ncnc32)[C@H](O)[C@H]1O,"inconclusive: 39.8 µM [activator, single point]",
C=CCSc1nnc2nc3[nH]c4c(C)cccc4c3nn12,"inconclusive: 39.8 µM [activator, single point]",
CC(C)(S)[C@H](N)C(=O)O,,inactive: -4.62% and inactive: 2.52%
COc1ccc(C(CC(=O)Nc2cc(Cl)c(OC)cc2OC)N2Cc3ccccc3C2=O)cc1 (stereo unspecified),,inactive: 6.61%
CCc1sc(N(C(=O)Cc2ccccc2)c2ccccc2)nc1-c1ccccc1,"inconclusive: 31.6 µM [inhibitor, single point]",
